± gives the standard error. Variants at the background level are over-represented here.
B1: glmS ribozyme (parent)
chain: AUAAAAGCGCCAGAACUACAGAAAUGUAGUUGACGAGGAGGAGGUUUAUCGAAUUUUCGGCGGAUGCCUCCAAA

Assays:
Conditions in all cases: with glucosamine-6-phosphate
glucosamine-6-phosphate [1] = variants of: B1; assay: self-cleavage kobs at 40 uM GlcN6P; higher = faster cleavage; RNA array
In short: (§1)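 In situ transcription by E. coli RNA polymerase produced barcoded ribozyme variants on sequenced MiSeq chips, and a hybridised Cy3 probe tracked them at 37 °C. Glucosamine-6-phosphate was flowed in at 40 μM to 10 mM in HEPES/KCl/Mg(OAc)2 buffer. kcat and KM were taken from weighted Michaelis–Menten fits of kobs values from exponential decay fits.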

glucosamine-6-phosphate [2] = variants of: B1; assay: self-cleavage kobs at 160 uM GlcN6P; higher = faster cleavage; RNA array
In short: as §1

glucosamine-6-phosphate [3] = variants of: B1; assay: self-cleavage kobs at 640 uM GlcN6P; higher = faster cleavage; RNA array
In short: as §1

glucosamine-6-phosphate [4] = variants of: B1; assay: self-cleavage kobs at 2500 uM GlcN6P; higher = faster cleavage; RNA array
In short: as §1

glucosamine-6-phosphate [5] = variants of: B1; assay: self-cleavage kobs at 10000 uM GlcN6P; higher = faster cleavage; RNA array
In short: as §1

Variant | self-cleavage kobs at 40 uM GlcN6P (glucosamine-6-phosphate [1]) [s⁻¹] | self-cleavage kobs at 160 uM GlcN6P (glucosamine-6-phosphate [2]) [s⁻¹] | self-cleavage kobs at 640 uM GlcN6P (glucosamine-6-phosphate [3]) [s⁻¹] | self-cleavage kobs at 2500 uM GlcN6P (glucosamine-6-phosphate [4]) [s⁻¹] | self-cleavage kobs at 10000 uM GlcN6P (glucosamine-6-phosphate [5]) [s⁻¹]
A12U G38C | < 1e-05 | < 1e-05 |  |  | 
A12U G41A G44C U55G | < 1e-05 |  |  |  | 
A12U G41U C61U | < 1e-05 | < 1e-05 | < 1e-05 | < 1e-05 | < 1e-05
A12U G51U U56A U69G | < 1e-05 |  |  |  | 
A12U U30A C70U | 0.000748 ± 0.00013 |  |  |  | 0.0461 ± 0.017
A12U U30C A48G | < 1e-05 |  |  |  | 
A12U U30G U56G | 0.000609 ± 0.00013 |  |  |  | 0.0339 ± 0.0098
A12U U47C | 0.00032 ± 3.3e-05 | 0.000599 ± 0.0001 | 0.00299 ± 0.00033 | 0.0111 ± 0.0021 | 0.00873 ± 0.0011
A12U U49A | < 1e-05 | < 1e-05 |  |  | 
G13A A14U U31C | 7.34e-05 ± 1.8e-05 |  |  |  | 
G13A A14U U45C | < 1e-05 |  |  |  | 
G13A A33G U54G | < 1e-05 |  | < 1e-05 |  | < 1e-05
G13A A48G | < 1e-05 | < 1e-05 | < 1e-05 | < 1e-05 | < 1e-05
G13A A53U | < 1e-05 |  | 7.57e-05 ± 2.4e-05 | 0.000174 ± 4.1e-05 | 
G13A C19A C34G | < 1e-05 |  |  |  | 
G13A C50G G66U U69A | 8.64e-05 ± 2.3e-05 |  | 0.000563 ± 0.00026 |  | 0.000117 ± 3e-05
G13A G32U C71G | < 1e-05 |  |  |  | 
G13A G62U C70U | < 1e-05 |  |  |  | < 1e-05
G13A U45G U69G | < 1e-05 |  | < 1e-05 |  | 
G13C A14U C61U | < 1e-05 |  |  |  | 
G13C C16A | < 1e-05 | < 1e-05 |  |  | 
G13C C34G U49G G51U | < 1e-05 |  |  | < 1e-05 | 
G13C C50U | < 1e-05 | < 1e-05 | < 1e-05 | < 1e-05 | < 1e-05
G13C G37U U46C | < 1e-05 |  | < 1e-05 |  | 
G13C G40A C68A | < 1e-05 |  |  |  | < 1e-05
G13C G44A | < 1e-05 | < 1e-05 | < 1e-05 |  | < 1e-05
